Among all 420,000 compounds or so, about 64,000 (15%) were called active. This list was built around the results that the source calls inconclusive (neither active nor inactive); the mix of calls is not that of the screen. The call rests on the fitted dose curve; in most records, active means well fitted inhibition curve with a large enough effect; inconclusive means small, poorly fitted or top-dose-only effect; inactive means flat fitted curve, though single readings scatter. No potency is given beside an inconclusive call; the fits are too rough.
test: qHTS for Inhibitors of human tyrosyl-DNA phosphodiesterase 1 (TDP1): qHTS in cells in absence of CPT; details: DT40 Tdp1-/- hTDP1 cells, no CPT, ATP luminescence, 48 h; activity change, negative = growth inhibition: at 46.2 µM (top of the series) unless noted; further: nearly all actives have a fitted effect of over 55% in size
Summary of the method: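 Growth of hTDP1-complemented DT40 Tdp1-knockout cells is measured by ATP luminescence after at least 48 hr compound exposure at 37 °C, with DMSO substituting for the 20 nM CPT used in the parallel screen.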
On the % scale 0 is the no-effect control and ±100 the full control effect; potency means the concentration at half of the fitted maximal effect; tags describe the fitted curve by direction and shape.

Row | Structure (SMILES) | Potency | activity change, negative = growth inhibition
1 | Cc1ccc(C)c(OCC(=O)Nc2ccc3c(c2)OCO3)c1 | inconclusive [inhibitor, single point] | –
2 | CCCn1nnnc1NCc1ccc(F)cc1 | – | inactive: 6.47%
3 | COc1ccccc1NS(=O)(=O)c1ccc2[nH]c(=S)oc2c1 | – | inactive: -9.94%
4 | COc1cccc(C2CC(c3cccc(C)c3)n3ncnc3N2)c1 (stereo not drawn) | inconclusive [inhibitor, partial curve] | –
5 | CC[N+]1(CC)CC2=Cc3c(ccc4ccccc34)CC2C1 (stereo not drawn) | active: 20.6 µM | –
6 | O=C(/C=C\NCC(=O)c1ccccc1)c1ccccc1 | – | inactive: -16.2%
7 | COc1ccc(OC)c(NS(=O)(=O)c2ccc(NC(C)=O)cc2)c1 | inconclusive [inhibitor, partial curve] | –
8 | CCOc1nc(C)cc(COC)c1C(N)=O | – | inactive: 0.37%
9 | CCCOc1ccc2oc(=O)c3c(c2c1)CCCN3C(=O)CN1CCc2ccccc2C1 | active: 23.1 µM | –
10 | Cc1nc2ccccc2cc1O | inconclusive [inhibitor, single point] | –
11 | Cc1ccc2cc(CN(Cc3nnnn3Cc3ccco3)CC3CCCO3)c(=O)[nH]c2c1C (stereo not drawn) | inconclusive [inhibitor, partial curve] | –
12 | Cc1ccc(-c2nc3ccccn3c2Nc2ccccc2C)s1 | active: 20.6 µM | –
13 | COc1ccc(S(=O)(=O)NCc2cccnc2)cc1C | – | inactive: -0.0209%
14 | O=S(=O)(c1ccc(F)cc1)N1CCN(c2nc(-c3cccs3)nc3ccccc23)CC1 | inconclusive [inhibitor, single point] | –
15 | C/C(=C\c1ccc2c(c1)OCO2)C(=O)c1c(C)cc(C)[nH]c1=O | – | inconclusive: -30.8% [inhibitor]
16 | Cc1c(C(=O)N2CCCCCC2)c(S(=O)(=O)NCc2ccc(Br)cc2)c(C)n1C | inconclusive [inhibitor, single point] | –
17 | CC(C)c1ccccc1NC(=O)Cn1c(/C=C/c2ccccc2)nc2ccccc21 | inconclusive [inhibitor, partial curve] | –
18 | CCc1ccc2nc(NC(=O)C3CSC4(C)CCC(=O)N34)sc2c1 (stereo not drawn) | inconclusive [inhibitor, single point] | –
19 | Cc1ccc(C)c(NC(=O)C[n+]2ccccc2)c1 | – | inactive: 7.81%
20 | CCc1ccc(NC(=O)Cn2c3[n+](c4c(F)c(F)ccc42)CCCCC3)cc1 | active: 5.8 µM | –
21 | CCOC(=O)Nc1cccc(OCC(=O)Nc2ccc(OC)cc2OC)c1 | active: 9.2 µM | –
22 | O=C1C=CC(c2ccccc2)(c2ccccc2)CC1 | inconclusive [inhibitor, single point] | –
23 | COc1cccc(NC(=O)c2cccs2)c1 | – | inactive: 0.927%
24 | CN(C)c1ccc(C=C2C(=O)c3ccccc3C2=O)cc1 | – | inactive: -20.5%
25 | COc1ccc(Nc2cc(C(=O)NC3CCC(C)CC3)c3ccccc3n2)cc1OC (stereo not drawn) | inconclusive [inhibitor, single point] | –
26 | NC(=O)C(F)(F)C12OC3C4C5CC(C6C5C3C61)C42 (stereo not drawn) | – | inactive: 0.813%

Row | Structure (SMILES) | Potency | activity change, negative = growth inhibition
27 | CC1CN(C(=O)CSc2nnc(NC(=O)NC(C)(C)C)s2)CC(C)O1 (stereo not drawn) | inconclusive [inhibitor, single point] | –
28 | Cc1ccccc1C(=O)NC1CCCCCCC1 | – | inactive: 2.28%
29 | CCOc1ccc(OCC)c(NC(=O)Cn2cccc2)c1 | – | inactive: -26.9%
30 | Cc1ccc(C)c(NC(=S)NNC(=O)c2ccco2)c1 | – | inactive: -16.4%
31 | O=C(Nc1cccc(NC(=O)c2cccnc2)c1)c1ccccc1 | inconclusive [inhibitor, single point] | –
32 | CCOc1ccccc1C(=O)Nc1ccccc1C(N)=O | – | inactive: -23.1%
33 | Cc1ccc(Cn2c(CCC(=O)O)nc3ncccc3c2=O)cc1 | – | inactive: 1.66%
34 | COc1ccc(-c2nc3scc(-c4ccc(OC)c(OC)c4)c3c(=O)o2)cc1 | inconclusive [inhibitor, single point] | –
35 | COc1cc(NC(=O)CN2C(=O)C(c3ccccc3)=NC23CCCCCC3)cc(OC)c1 | – | inactive: -37%
36 | COc1ccc([C@H]2CN(c3ccc(OC)cc3)C(=O)[C@@H]2CC(=O)Nc2ccccc2)cc1 | active: 13 µM | –
37 | COc1ccc(C(=O)N/N=C/c2ccccc2OC(=O)c2ccccc2)cc1 | active: 0.517 µM | –
38 | FC(F)Oc1ccc(NC(=S)NCc2ccccc2)cc1 | inconclusive [inhibitor, partial curve, poor fit] | –
39 | O=C(Nc1cc(C(F)(F)F)ccc1N1CCOCC1)C1=NN(c2ccccc2)C(=O)CC1 | inconclusive [inhibitor, single point] | –
40 | COc1cc(Nc2ncnc(N)n2)cc(OC)c1OC | – | inactive: -25.8%
41 | Cc1cc(Cl)ccc1OCCCC(=O)N1CCCCC1 | inconclusive [inhibitor, partial curve] | –
42 | COc1ccc(N2CCN(C(CNC(=O)C(=O)NCCCO)c3ccco3)CC2)cc1 (stereo not drawn) | – | inactive: -6.11%
43 | CS(=O)(=O)N1CCc2cc(S(=O)(=O)NCCNS(=O)(=O)c3ccc4c(c3)CCN4S(C)(=O)=O)ccc21 | – | inactive: 7.35%
44 | CCC(Sc1nc2ccccc2c(=O)n1CC1CCCO1)C(=O)NCc1cccnc1 (stereo not drawn) | – | inactive: -6.06%
45 | O=C(OCCOc1ccccc1)c1cc(S(=O)(=O)N2CCOCC2)ccc1Cl | inconclusive [inhibitor, partial curve, poor fit] | –
46 | CC(C)C[C@@H]1COc2cccc(N3CCC[C@H]3CO)c2S(=O)(=O)N1 | – | inactive: -10.5%
47 | COc1ccc(NC(=O)C2(C)Cc3c(-c4cccc(NC(C)=O)c4)ccnc3O2)cc1 (stereo not drawn) | active: 1.16 µM | –
48 | CCOc1ccc(C2Nc3c(C)cccc3-c3cc(C)nn32)cc1 (stereo not drawn) | inconclusive [inhibitor, partial curve, poor fit] | –
49 | O=C(CC(c1ccccc1)c1ccccc1)NCC(O)c1ccc([N+](=O)[O-])cc1 (stereo not drawn) | – | inactive: -29.9%
50 | O=C(Nc1cccc(NC(=O)c2ccc(-c3cccc(Br)c3)o2)c1)c1ccco1 | active: 11.2 µM | –
51 | O=C(CCS(=O)(=O)c1ccc(F)cc1)Nc1nnc(-c2ccco2)o1 | inconclusive [inhibitor, single point] | –
52 | Cc1cc(N2CCC(C(=O)N3CCN(c4cccc(C)c4C)CC3)CC2)n2ncnc2n1 | active: 20.6 µM | –

Row | Structure (SMILES) | Potency | activity change, negative = growth inhibition
53 | O=C1COc2ccc(C(=O)CSc3nnc(NCc4ccccc4)s3)cc2N1 | active: 13 µM | –
54 | CC(=O)Nc1ccc(NC(=O)C/C(C)=N/NC(=O)COc2cc(C)c(Br)cc2Br)cc1 | – | inactive: -1.31%
55 | CC(=O)Nc1ccc(CN2C(=O)C(C)ON=C2c2ccccc2-c2ccco2)cc1 (stereo not drawn) | inconclusive [inhibitor, single point] | –
56 | COc1ccc(CCNC(=O)COc2cc(O)c3c(c2)OC(C)(C)CC3=O)cc1 | inconclusive [inhibitor, partial curve, poor fit] | –
57 | O=C(CS(=O)Cc1ccccc1Cl)Nc1ccccc1Cl (stereo not drawn) | – | inactive: 1.14%
58 | COc1ccc(S(=O)(=O)NCC(c2ccco2)S(=O)(=O)c2cccs2)cc1C (stereo not drawn) | inconclusive [inhibitor, partial curve, poor fit] | –
59 | COC(=O)c1ccc(/C=C2/SC(=S)N(CCCC(=O)Nc3ccccn3)C2=O)cc1 | active: 20.6 µM | –
60 | CC(/C=C1\SC(=S)N(NC(=O)c2cccc(O)c2)C1=O)=C\c1ccccc1 | – | inactive: -18.9%
61 | Cc1ccc(-c2noc(Cn3nc(C(=O)O)c4ccccc4c3=O)n2)cc1 | – | inactive: -6.37%
62 | O=C(CN1C(=O)c2ccccc2C1=O)OCC(=O)N1CCc2ccccc2C1 | active: 0.0092 µM | –
63 | O=C(CN1CCCC1)N1c2ccccc2Sc2ccc(C(F)(F)F)cc21 | inconclusive [inhibitor, single point] | –
64 | Cc1sc2nc(C3CC3)nc(N3CCN(C(=O)c4ccc(F)cc4)CC3)c2c1C | active: 23.1 µM | –
65 | Cc1ccccc1NC(=S)NNC(=O)c1cccc(Br)c1 | inconclusive [inhibitor, single point] | –
66 | COc1ccc(/C=N/Nc2cc(C)nc(N3CCOCC3)n2)cc1OC | inconclusive [inhibitor, single point] | –
67 | Cc1oc2ncnc(N3CCOCC3)c2c1C(=O)N(Cc1ccccc1)C(C)C | – | inactive: -14.8%
68 | COc1cccc2cc(C(=O)OCC(=O)NC3CCCC(C)C3C)c(=O)oc12 (stereo not drawn) | inconclusive [inhibitor, full curve] | –
69 | CCOc1ccc(NC(=O)c2cnn3c2NC(c2cccc(OC)c2)=CC3c2ccccc2)cc1 (stereo not drawn) | active: 20.6 µM | –
70 | Cc1ccc(CN(C)C(=O)CSc2nnc3n2CCCCC3)c(C)c1 | inconclusive [inhibitor, partial curve] | –
71 | CCc1ccc(NC(=S)Nc2cccc3cnccc23)cc1 | active: 14.6 µM | –
72 | Cc1ccc(/C=C/C(=O)c2ccccc2O)cc1 | inconclusive [inhibitor, single point] | –
73 | COc1cccc(N2CCN(C(=O)c3cccn4c(=O)c5c(C)c(C)sc5nc34)CC2)c1 | inconclusive [inhibitor, partial curve, poor fit] | –
74 | COCC1CCCN(Cc2cn(Cc3ccccc3)nc2-c2cc3ccccc3o2)C1 (stereo not drawn) | inconclusive [inhibitor, single point] | –
75 | COc1cccc(O)c1CN1CCC(n2nccc2NC(=O)c2ccc3c(c2)OCO3)CC1 | – | inactive: 3.5%
76 | Cn1nc(C(F)(F)F)c(/C=N/OC(=O)c2ccccc2Cl)c1SCc1ccccc1Cl | inconclusive [inhibitor, single point] | –
77 | CC(C)(C)SCCNS(=O)(=O)c1ccc(F)cc1 | inconclusive [inhibitor, partial curve, poor fit] | –
78 | O=C(c1cc2ccccc2o1)N1CCN(S(=O)(=O)c2c(F)cccc2F)CC1 | inconclusive [inhibitor, single point] | –

From PubChem BioAssay AID686978 (National Center for Advancing Translational Sciences (NCATS), 2013)
